From PubChem BioAssay (NCATS)
Inconclusive means that the source gave no clear call. Such entries were picked first, then a sample of the others. Where the call is inconclusive, the potency comes from a doubtful curve fit. Calls of active or inactive are those of the source. The call rests on the fitted dose curve; in most records, active means well fitted cell-killing curve with a large enough effect; inconclusive means small, poorly fitted or top-dose-only effect; inactive means flat fitted curve, though single readings scatter.

assay: qHTS of pediatric cancer cell lines to identify multiple opportunities for drug repurposing: Primary screen for RD cells (AID 1347104); conditions: RD rhabdomyosarcoma viability, CellTiter-Glo luminescence, 48 h; series mostly up to 46 µM; activity change, negative = cytotoxic: at the top concentration; further: nearly all actives have a fitted effect of over 55% in size
Text: Drug repurposing or repositioning has been offered as a strategy for drug development in oncology programs. This approach has special potential for childhood cancers and other rare or orphan diseases, where the expected return on new drug development has been a disincentive to pharmaceuticals. […] In this project we exploit the poly-pharmacology of drugs to discover new indications via phenotypic screening of a panel of 19 well-characterized cell lines derived from solid tumors seen in children and adolescents. The goal is to identify approved drugs with previously unrecognized anticancer properties that has the potential to reveal new mechanisms and biological processes involved in carcinogenesis or drug resistance. We employed a titration-based paradigm (quantitative high-throughput screening or qHTS), where all compounds were tested at multiple concentrations for their effect on cell viability. Concentration-response curves (CRCs) were derived directly from the primary screen, and both potency and efficacy values were used to identify compounds with robust bioactivity profiles. We screened the NIH Chemical Genomics Center (NCGC) Pharmaceutical Collection (NPC) and Mechanism Interrogation Plate (MIPE) small molecule collections of approved and investigational compounds against these cell lines; and measured metabolically active cells after 48 hours of compound treatment as a proxy for cell viability. […] Assay Submitter: Nathalia J. Martinez, National Center for Advancing Translational Sciences, National Institutes of Health, Rockville, MD, USA; email: natalia.martinez@nih.gov Shen, M et al. Quantitative high-throughput phenotypic screening of pediatric cancer cell lines identifies multiple opportunities for drug repurposing. Oncotarget 2017 Dec 19;9(4):4758-4772. PMID 29435139.
The cells were obtained from University of North Carolina (UNC), Pediatric Preclinical Testing Program (PPT), and Coriell Institute (CI). qHTS cell viability assay: Cells were assayed in growth media at a density of 500-1,000 cells/well. Five microliters of cells were dispensed into 1,536-well, white, solid-bottom, TC-treated plates (Greiner Bio One) using a multidrop dispenser and incubated at 37 degrees C, 5% CO2, under a humidified atmosphere for 5 hours. Twenty-three nanoliters of compounds and controls (neutral control DMSO or positive control bortezomib at final concentration of 2.3 µM) were subsequently transferred by Kalypsys pintool. For primary screens, the MIPE collection was tested at 11-point dilutions (final concentrations range from 0.78 nM to 46 µM) and the NPC collection at 8-point dilutions (final concentrations range from 0.59 nM to 46 µM). Compounds tested in follow-up screens were assayed at 11-point dilutions. Cells were incubated for 48 hours, followed by addition of 3 µL of CellTiter-Glo (Promega). After a 15 min incubation at room temperature, samples were analyzed for luminescence intensity using a ViewLux High-throughput CCD imager equipped with clear filters.
Potency means the concentration at half of the fitted maximal effect; tags describe the fitted curve by direction and shape.

SMILES | Potency | activity change, negative = cytotoxic
OC(CCN1CCCC1)(c1ccccc1)C1CCCCC1 (stereo not given) | inconclusive: 26.6 µM [cytotoxic, single point] | 
O=c1[nH]c2ccccc2c(=O)n1CCCl |  | inactive: 12.1%
COc1cccc(OC)c1C(=O)N[C@@H]1C(=O)N2[C@@H]1SC(C)(C)[C@@H]2C(=O)O |  | inactive: 7.66%
CN(C)CC[C@@H](c1ccc(Br)cc1)c1ccccn1 |  | inactive: -17%
O=C(O)[C@H](O)c1ccccc1 |  | inactive: 17.3%
CC(CC(C#N)(c1ccccc1)C(C)C)N(C)C (stereo not given) |  | inactive: 3.41%
CCOC(=O)C(O)c1ccccc1 (stereo not given) |  | inactive: 8.63%
Nc1ccc(S(=O)(=O)NC(=O)c2ccccc2)cc1 |  | inactive: 0.72%
CCCCCCCCCCCCCCCCOP(=O)([O-])OCC[N+](C)(C)C | inconclusive: 16.8 µM [cytotoxic, partial curve, poor fit] | 
CC(=O)OCC(=O)[C@@]1(O)[C@H](OC(C)=O)C[C@H]2[C@@H]3CCC4=CC(=O)C=C[C@]4(C)[C@@]3(F)[C@@H](O)C[C@@]21C |  | inactive: 12.3%
O=C1CC2(CCCC2)CC(=O)N1 |  | inactive: 15.3%
CCCCCCCCCCCCCCCC(=O)O |  | inactive: 3.96%
C#C[C@]1(O)CC[C@H]2[C@@H]3CCC4=CC(=O)CC[C@@H]4[C@H]3CC[C@@]21C |  | inactive: -4.7%
CCN(CC)CCOCCOC(=O)C1(c2ccccc2)CCCC1 | inconclusive: 23.7 µM [cytotoxic, single point] | 
CN1Cc2c(N)cccc2C(c2ccccc2)C1 (stereo not given) |  | inactive: 4.18%
C#C[C@]1(OC(C)=O)CC[C@H]2[C@@H]3CCC4=C[C@@H](OC(C)=O)CC[C@@H]4[C@H]3CC[C@@]21C | inconclusive: 21.1 µM [cytotoxic, single point] | 
Cc1c(C)c2c(c(C)c1OC(=O)CCC(=O)OCCO)CC[C@@](C)(CCC[C@H](C)CCC[C@H](C)CCCC(C)C)O2 | inconclusive: 29.9 µM [cytotoxic, single point] | 
CC(C)OC(=O)C(C)(C)Oc1ccc(C(=O)c2ccc(Cl)cc2)cc1 | inconclusive: 29.6 µM [cytotoxic, partial curve] | 
C[C@@H]1O[C@@H](O[C@H]2CC[C@@]3(C)[C@H](CC[C@@H]4[C@H]3C[C@@H](O)[C@]3(C)[C@@H](C5=CC(=O)OC5)CC[C@]43O)C2)C[C@H](O)[C@@H]1O[C@H]1C[C@H](O)[C@H](O[C@H]2C[C@H](O)[C@@H](O)[C@@H](C)O2)[C@H](C)O1 (stereo in doubt) | active: 0.121 µM | 
Cc1ncc(CO)c(CO)c1O |  | inactive: 4.27%

SMILES | Potency | activity change, negative = cytotoxic
C[N+](C)(C)CCOC(N)=O |  | inactive: 12.6%
CC(=O)N[C@@H](CCC(=O)O)C(=O)O |  | inactive: 13.9%
CCc1nnc(NS(=O)(=O)c2ccc(N)cc2)s1 |  | inactive: 4.6%
O=C(CCCCCCCCC#CI)Oc1ccccc1 |  | inactive: -5.93%
CCC(C(=O)NC(=O)NC(C)=O)c1ccccc1 (stereo not given) |  | inactive: -3.4%
O=C(CN1CCNCC1)NC1CCCCC1 |  | inactive: -2.81%
COC(=O)c1c(Cl)c(Cl)c(C(=O)OC)c(Cl)c1Cl |  | inactive: 9.98% [at 92.7 µM]
Oc1c(Cl)cc(Cl)cc1Sc1cc(Cl)cc(Cl)c1O |  | inactive: -15.3%
COCCCC/C(=N\OCCN)c1ccc(C(F)(F)F)cc1 | inconclusive: 26.6 µM [cytotoxic, single point] | 
CCCCCCOC(=O)NC(=N)c1ccc(NCc2nc3cc(C(=O)N(CCC(=O)OCC)c4ccccn4)ccc3n2C)cc1 | inconclusive: 26.6 µM [cytotoxic, single point] | 
Cc1ncc(CO)c(C=O)c1O |  | inactive: -1.57%
CCCCC/C(C=O)=C\c1ccccc1 |  | inactive: 13%
Nc1ccc(/C=C/c2ccc(N)cc2S(=O)(=O)O)c(S(=O)(=O)O)c1 |  | inactive: 13.1% [at 0.597 µM]
OC(CCCN1CCCCC1)(c1ccccc1)c1ccccc1 |  | inactive: -21.7%
CCCC(O)C(CC)CO (stereo not given) |  | inactive: 19.8%
c1ccc2c(CC3=NCCN3)cccc2c1 |  | inactive: -11.8%
CCCCCCCC/C=C\CCCCCCCCN |  | inactive: 7.81%
Cc1c(F)c(N2CCNC(C)C2)cc2c1c(=O)c(C(=O)O)cn2C1CC1 (stereo not given) |  | inactive: 8.41%
O=C1[C@@H]2[C@H]3CC[C@H](C3)[C@@H]2C(=O)N1CCCCN1CCN(c2ncccn2)CC1 |  | inactive: 9.33%
C[C@H]1NCc2cc(-c3ccc4c(=O)c(C(=O)O)cn(C5CC5)c4c3OC(F)F)ccc21 |  | inactive: -3.1% [at 16.1 µM]
